In PubChem BioAssay AID2060507 (Molecular Pharmacology Branch, DTP, NCI, 2025):
Not every entry of the source has a single result; some have several. Only these are listed. An entry can have further records. Values that stand side by side repeat one measurement (runs, samples, wells, individuals or studies).

Test system: 519858-162-T-J1-PDC complex spheroid viability
Experiment: Anticancer human tumor 519858-162-T-J1-PDC patient-derived colon adenocarcinoma cell line growth inhibition [GQUAD]
Details: for viability, T/C: stronger effect = lower value
Text: DNA G-quadruplex Stabilizer Agents in Combinations in Complex Spheroids
A high-throughput screen of multi-cell type tumor spheroids was designed to identify active combinations of DNA G-quadruplex stabilizer agents and targeted small molecules. Complex spheroids include a stromal component modeled by human endothelial cells (HUVEC) and fibroblasts modeled by human mesenchymal stem cells (MSCs). The concentration ranges selected for each drug and investigational agent were based upon clinically achievable concentrations if the clinical Cmax of the agent was known.
Compounds. The drugs and investigational agents: pidnarulex (CX-5461; NSC782164), APTO-253 (NSC789042), BRACO-19 (NSC847499), peposertib (NSC802822), ceralasertib (NSC780249), elimusertib (NSC800525), camonsertib (NSC841442), AZD-1390 (NSC803789), olaparib (NSC753686), talazoparib (NSC767125), ART-558 (NSC835418), sotorasib (NSC818433), MRTX-1133 (NSC836407), SN-38 (NSC673596), topotecan (NSC609699), etoposide (NSC141540), doxorubicin (NSC123127), gemcitabine (NSC613327), 5-fluorouracil (NSC19893), paclitaxel (NSC125973), vemurafenib (NSC761431), panobinostat (NSC761190), R-306465 (JNJ-16241199; NSC773264), adavosertib (NSC754352), TP-3654 (NSC805149), carboplatin (NSC241240), KSQ-4279 (NSC840948), and staurosporine (NSC755774) were obtained from the National Cancer Institute (NCI) Developmental Therapeutics Program Chemical Repository (34). The FDA-approved anticancer drug set is available from the NCI Developmental Therapeutics Program. […] The stock solutions were prepared in dimethyl sulfoxide (DMSO, Sigma-Aldrich, St. Louis, MO, cat. D2650) at 800-fold the tested concentration and stored at -70 degrees C prior to their use. All drugs and investigational agents were tested over a range starting from a high concentration at or near the clinical Cmax and decreasing in half-log increments. If the clinical Cmax for an agent had not been determined, the highest concentration tested was 10 microM.
2.3 Cell Culture. All cells were maintained in an incubator at 37 degrees C and 5% CO2 with 95% humidity. The PDC lines were cultured according to standard operating procedures established by the NCI PDMR. All PDCs were thawed and cultured in Matrigel-coated flasks prepared with a working solution of 1X Ham's F-12 nutrient mix, without supplementation (Invitrogen, cat. 11765054), 100 U/mL penicillin-streptomycin (Invitrogen, cat. 15140122), and 2.5% Matrigel (Corning Inc., cat. 354248) for the first three passages. The 857933-349-R-J2-PDC line was cultured in 6C/Colon 1B media, which includes advanced DMEM/F-12 (Thermo Fisher Scientific, cat. 12634028), 10 mM HEPES (Thermo Fisher Scientific, cat. 15630080), 1X GlutaMAX supplement (Thermo Fisher Scientific, cat. 35050061), 0.1 mg/mL primocin (InvivoGen, cat. ant-pm-2), 10% defined fetal bovine serum, heat inactivated (HyClone Laboratories Inc., cat. SH30070.03HI), 50% L-WRN conditioned media (ATCC, cat. CRL-3276), 1.25 mM N-Acetyl-L-cysteine (Sigma-Aldrich, cat. A9165), 10 mM nicotinamide (Sigma-Aldrich, cat. N0636), 1X B-27 supplement (Thermo Fisher Scientific, cat. 17504044), 1X N-2 supplement (Thermo Fisher Scientific, cat. 17502048), 10 microM Y-27632 dihydrochloride (Tocris Bioscience, cat. 1254), and 50 ng/mL human EGF recombinant protein (Thermo Fisher Scientific, cat. PHG0311). The 485176-168-R4-J1-PDC line was cultured in Panc media, which includes all 6C/Colon 1B media components plus 100 ng/mL human FGF-10 (Thermo Fisher Scientific, cat. 100-26), 500 nM SB-431542 (Selleckchem, cat. S1067), and gastrin (Tocris, cat. 3006).
[…]
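Further: spheroids exposed to compounds for 7 days.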
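Wherever viability, T/C is given: 100% = DMSO vehicle control viability.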

Compound | viability, T/C (compound alone 0.0316 µM) | viability, T/C (compound alone 0.1 µM) | viability, T/C (compound alone 0.316 µM) | viability, T/C (compound alone 3.16 µM) | IC50 (compound alone, run of 02/20/2024) | viability, T/C (compound alone 1 µM) | viability, T/C (compound alone 10 µM)
Cc1cnc(CNC(=O)c2c(=O)c3ccc(N4CCCN(C)CC4)nc3n3c2sc2ccccc23)cn1 | 92.6, 68.2, 71.8, 86.9, 81.6, 73.3, 100, 89, 66.9, 102% | 91.8, 82.5, 85, 71.4, 95.8, 66.8, 83.9, 65.9, 78.7, 84.2% | 55.5, 73.9, 77.7, 59.8, 70.6, 60.1, 72.9, 83.5, 76.7, 82.2% | 61.5, 77.6, 79.6, 40.8, 53.6, 70.2, 65.3, 65.5, 58.2, 56.5% | > 10 µM, 7.62 µM, 9.76 µM, 4.08 µM, 5.43 µM |  | 
Cc1[nH]c2ccc(F)cc2c1-c1nc2c3cccnc3c3ncccc3c2[nH]1 | 72.8, 82.8, 86.1, 87.8, 80.1, 66.5, 92.8, 81.8, 87.6% |  |  | 75.4, 96.3, 79.2, 60.5, 69.2, 97.4, 83.5, 63.6, 67.1% |  | 92.5, 125, 115, 108, 85.8, 89.4, 67.5, 80.4, 84% | 46.9, 66.9, 58, 57.1, 48.6, 77.5, 88.7, 68.1, 70.3%
CN(C)c1ccc(Nc2c3ccc(NC(=O)CCN4CCCC4)cc3nc3cc(NC(=O)CCN4CCCC4)ccc23)cc1 |  | 69.3, 94, 84.4, 71.2, 102, 84.6, 117% | 69.5, 93.4, 78.6, 81, 99, 89.7, 86.1% | 81.9, 73.8, 86.3, 58.8, 74.8, 71.2, 72.8% |  | 85.8, 70.8, 60.7, 86.7, 94.9, 82.1, 101% | 
